The test system of assay [1] is HSkMC (human skeletal muscle cells). The experiment in a line: cytotoxicity call (relative viability < 0.9). The conditions noted are these: 10 µM.
Assay [2] relates to HepG2. In words: cytotoxicity call (relative viability < 0.9). The conditions noted are these: 10 µM.
Assay [3] relates to S. aureus RN4220. The experiment in a line: growth inhibition call (relative growth <= 0.2). To be noted: 50 µM.

The list shows a part of the results.

On to `CN1C(=O)c2cc(NC(=O)C3CCOCC3)ccc2OC[C@@H]2O[C@H](CC(=O)NCc3ccc4c(c3)OCO4)CC[C@H]21`, for which the cytotoxicity call in assay [1] and in assay [2] was “inactive” in each case. In addition, the growth inhibition call in assay [3] was “inactive”.
For `CC(=O)N[C@H]1[C@H](O[C@H]2CC[C@]3(C)[C@H]4CC=C5[C@@H]6CC(C)(C)CC[C@]6(C(=O)O[C@H]6OC[C@@H](O)[C@@H](O)[C@@H]6O)[C@@H](O)C[C@@]5(C)[C@]4(C)CC[C@H]3C2(C)C)O[C@H](CO[C@H]2OC[C@@H](O)[C@@H](O[C@H]3OC[C@@H](O)[C@@H](O)[C@@H]3O)[C@@H]2O)[C@@H](O[C@@H]2O[C@@H](C)[C@H](O)[C@@H](O)[C@H]2O[C@@H]2O[C@@H](C)[C@H](O)[C@@H](O)[C@H]2O)[C@@H]1O`, the cytotoxicity call in assay [1] was “inactive”. The cytotoxicity call in assay [2] is “active”. Also, the growth inhibition call in assay [3] is “inactive”.
For `COCC(=O)N(C)C[C@H]1Oc2cc(C#Cc3cccnc3)ccc2S(=O)(=O)N([C@@H](C)CO)C[C@H]1C`, the cytotoxicity call in assay [1] and in assay [2] was “inactive” throughout. In addition, in assay [3], the growth inhibition call is “inactive”.
With `C[C@@H]1CN([C@H](C)CO)C(=O)c2cccc(NC(=O)Nc3ccc(C(F)(F)F)cc3)c2O[C@@H]1CN(C)S(=O)(=O)c1ccc(Cl)cc1`, the cytotoxicity call in assay [1] and in assay [2] was “inactive” each time. The growth inhibition call in assay [3] is “inactive”.
`O=C(C[C@H]1CC[C@H]2[C@@H](COC[C@H](O)CN2C(=O)Nc2ccc(Cl)c(Cl)c2)O1)NCc1ccncc1`: the cytotoxicity call in assay [1] and in assay [2] was “inactive” in each case. Moreover, the growth inhibition call in assay [3] is “inactive”.
On to `C[C@H](CO)N1C[C@H](C)[C@@H](CN(C)C(=O)Nc2ccc3c(c2)OCO3)Oc2c(NC(=O)Nc3ccc(C(F)(F)F)cc3)cccc2C1=O`, for which the cytotoxicity call in assay [1] is “active”. In assay [2], the cytotoxicity call is “inactive”. Also, in assay [3], the growth inhibition call was “inactive”.
As to `C[C@H]1CN([C@@H](C)CO)C(=O)Cc2cc(NS(=O)(=O)c3ccc(Cl)cc3)ccc2O[C@@H]1CN(C)C`, the cytotoxicity call in assay [1] was “inactive”. Besides, in assay [2], the cytotoxicity call is “active”. Further, the growth inhibition call in assay [3] was “inactive”.
For `C[C@@H]1CN([C@H](C)CO)C(=O)c2cc(NC(=O)CCCCCC(=O)Nc3ccccc3N)ccc2O[C@H]1CN(C)C(=O)Nc1ccc(C(F)(F)F)cc1`, the cytotoxicity call in assay [1] and in assay [2] was “inactive” each time. Also, the growth inhibition call in assay [3] is “inactive”.
In the case of `C[C@@H]1CN([C@H](C)CO)C(=O)c2ccccc2-c2ccccc2CO[C@H]1CN(C)C(=O)Nc1cccc(C(F)(F)F)c1`, the cytotoxicity call in assay [1] and in assay [2] was “inactive” throughout. In addition, in assay [3], the growth inhibition call was “inactive”.
On to `C[C@@H]1CCCCO[C@H](CN(C)C(=O)C2CCCCC2)[C@@H](C)CN([C@H](C)CO)C(=O)c2cc(NS(=O)(=O)c3cccs3)ccc2O1`, for which the cytotoxicity call in assay [1] and in assay [2] was “inactive” throughout. Further, the growth inhibition call in assay [3] was “inactive”.
As to `C[C@H]1CN([C@@H](C)CO)C(=O)c2cccc(NS(=O)(=O)c3cn(C)cn3)c2O[C@@H]1CN(C)S(=O)(=O)c1cn(C)cn1`, the cytotoxicity call in assay [1] and in assay [2] was “inactive” in each case. Moreover, the growth inhibition call in assay [3] is “inactive”.
With `COc1ccc(S(=O)(=O)N(C)C[C@H]2Oc3ccc(NS(=O)(=O)c4c(C)noc4C)cc3C(=O)N([C@H](C)CO)C[C@H]2C)cc1`, the cytotoxicity call in assay [1] and in assay [2] was “inactive” in each case. Also, in assay [3], the growth inhibition call is “inactive”.
For `C[C@@H]1CCCCO[C@@H](CN(C)C(=O)Nc2ccc3c(c2)OCO3)[C@H](C)CN([C@@H](C)CO)C(=O)c2cc(NC(=O)C3CCCCC3)ccc2O1`, the cytotoxicity call in assay [1] and in assay [2] was “inactive” in each case. Further, the growth inhibition call in assay [3] is “inactive”.
As for `CC(C)NC(=O)N(C)C[C@H]1Oc2cc(C#Cc3ccccn3)ccc2S(=O)(=O)N([C@@H](C)CO)C[C@H]1C`, the cytotoxicity call in assay [1] and in assay [2] was “inactive” throughout. In assay [3], the growth inhibition call was “inactive”.
With `CN1C(=O)c2cc(NC(=O)c3cnccn3)ccc2OC[C@@H]2O[C@H](CC(=O)N[C@@H]3CCN(Cc4ccccc4)C3)CC[C@H]21`, the cytotoxicity call in assay [1] and in assay [2] was “inactive” in each case. For the same compound, the growth inhibition call in assay [3] was “inactive”.
Turning to `CCOC(=O)C(CCc1ccccc1)NC(C)C(=O)N1Cc2ccccc2CC1C(=O)O` (stereo unspecified), the cytotoxicity call in assay [1] and in assay [2] was “inactive” in each case. For the same compound, in assay [3], the growth inhibition call was “inactive”.
As to `COC(=O)C[C@@H]1CC[C@@H]2[C@H](COC[C@@H](O)CN2S(=O)(=O)c2ccccc2C)O1`, the cytotoxicity call in assay [1] and in assay [2] was “inactive” each time. Further, the growth inhibition call in assay [3] is “inactive”.
With `C[C@H](CO)N1C[C@H](C)[C@@H](CN(C)Cc2ccncc2)OCCCC[C@H](C)Oc2ccc(NC(=O)CCC(F)(F)F)cc2C1=O`, the cytotoxicity call in assay [1] and in assay [2] was “inactive” each time. The growth inhibition call in assay [3] was “inactive”.
Take `COc1ccc(NC(=O)N(C)C[C@H]2OCCCC[C@@H](C)Oc3ccc(NC(=O)CCC(F)(F)F)cc3C(=O)N([C@@H](C)CO)C[C@@H]2C)cc1`: the cytotoxicity call in assay [1] and in assay [2] was “inactive” in each case. In assay [3], the growth inhibition call is “inactive”.
`C[C@H]1CN([C@@H](C)CO)C(=O)c2cc(C#CC3(O)CCCC3)cnc2O[C@H]1CN(C)C(=O)Cc1ccncc1`: the cytotoxicity call in assay [1] and in assay [2] was “inactive” in each case. Also, the growth inhibition call in assay [3] is “inactive”.
For the compound `Cc1cc(C)n([C@@H](CC(=O)O)C(=O)O)n1`, the cytotoxicity call in assay [1] and in assay [2] was “inactive” in each case. Also, in assay [3], the growth inhibition call was “inactive”.
With `C[C@@H]1CCCCO[C@H](CN(C)C(=O)NC2CCCCC2)[C@@H](C)CN([C@H](C)CO)C(=O)c2cc(NC(=O)Nc3cccc4ccccc34)ccc2O1`, the cytotoxicity call in assay [1] and in assay [2] was “inactive” each time. Further, in assay [3], the growth inhibition call was “inactive”.
In the case of `C[C@@H]1CN([C@@H](C)CO)C(=O)c2cc(NS(=O)(=O)c3cn(C)cn3)ccc2O[C@@H](C)CCCCO[C@@H]1CN(C)C(=O)CCCN(C)C`, the cytotoxicity call in assay [1] and in assay [2] was “inactive” in each case. Further, the growth inhibition call in assay [3] is “inactive”.
In the case of `C[C@@H]1CN([C@H](C)CO)C(=O)c2cccc(NS(=O)(=O)c3ccc(Cl)cc3)c2O[C@H]1CN(C)Cc1ccc(Oc2ccccc2)cc1`, the cytotoxicity call in assay [1] and in assay [2] was “inactive” in each case. For the same compound, the growth inhibition call in assay [3] was “inactive”.
`C[C@@H]1CN([C@@H](C)CO)C(=O)c2cccc(NS(C)(=O)=O)c2O[C@H]1CN(C)S(=O)(=O)c1ccccc1`: the cytotoxicity call in assay [1] and in assay [2] was “inactive” throughout. Moreover, in assay [3], the growth inhibition call is “inactive”.
For the compound `O=C(O)c1oc2ccccc2c1CSc1ccc(Cl)cc1`, the cytotoxicity call in assay [1] and in assay [2] was “inactive” in each case. In assay [3], the growth inhibition call was “inactive”.
Regarding `C[C@@H]1CCCCO[C@@H](CN(C)Cc2ccc3c(c2)OCO3)[C@H](C)CN([C@@H](C)CO)C(=O)c2cc(NC(=O)CCC(F)(F)F)ccc2O1`, the cytotoxicity call in assay [1] and in assay [2] was “inactive” in each case. In addition, the growth inhibition call in assay [3] is “inactive”.
